Results published in the supplement of paper PMC3334620.
Over roughly 33,000 sequences, “E-score (-0.5 to 0.5)” has its median near -0.032; the highest 2% begin near 0.36. Some of the results follow.

Target: T1, Sko1 (UniProt Q02100)
T1 sequence: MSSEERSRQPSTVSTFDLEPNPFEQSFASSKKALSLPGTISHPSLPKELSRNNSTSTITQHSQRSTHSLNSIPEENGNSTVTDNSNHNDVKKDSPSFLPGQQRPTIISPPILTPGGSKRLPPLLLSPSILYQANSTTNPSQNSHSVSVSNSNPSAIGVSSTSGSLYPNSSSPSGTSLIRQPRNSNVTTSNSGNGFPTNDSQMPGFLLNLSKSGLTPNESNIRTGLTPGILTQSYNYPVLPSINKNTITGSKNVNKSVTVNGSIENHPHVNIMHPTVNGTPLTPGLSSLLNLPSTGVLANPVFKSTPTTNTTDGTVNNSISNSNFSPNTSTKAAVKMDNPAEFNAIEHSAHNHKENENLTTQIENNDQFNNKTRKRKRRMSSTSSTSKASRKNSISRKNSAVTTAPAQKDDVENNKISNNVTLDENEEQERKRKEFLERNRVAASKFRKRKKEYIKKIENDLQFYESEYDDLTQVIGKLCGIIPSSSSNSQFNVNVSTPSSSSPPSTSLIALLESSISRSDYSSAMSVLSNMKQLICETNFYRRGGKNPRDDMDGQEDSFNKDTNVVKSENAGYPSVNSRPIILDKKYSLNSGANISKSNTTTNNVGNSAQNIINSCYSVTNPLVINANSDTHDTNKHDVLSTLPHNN
Test: PBM E-score (8-mer binding enrichment) (E-score (-0.5 to 0.5)); higher = stronger / more preferred TF binding; most listed sequences are background and not binding sites
Conditions: protein concentration: 200 nM; construct: GST-full length
How it was run: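 Full-length yeast transcription factors or their DNA-binding domains, GST-tagged and expressed with PURExpress, were applied at about 100-200 nM to universal all-10-mer Agilent arrays. These arrays had been made double-stranded by primer extension on fresh or once-stripped slides. Detection used fluorescent anti-GST, normalisation used masliner, and E-scores for ungapped eight-base words pooled with reverse complements came from the Universal PBM Analysis Suite.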

| Sequence | PBM E-score |
| --- | --- |
| GCGCTAGC | -0.2 |
| AGCGGCCG | -0.0793 |
| CGGCTTCC | -0.238 |
| ATCAATCA | 0.12 |
| CGGCTGAA | -0.0511 |
| CACATTGG | 0.0373 |
| GCAAGACC | -0.17 |
| CCTTCGGC | -0.159 |
| ATCTGGAG | -0.26 |
| TAGGTTGA | -0.0514 |
| CCGTGTGC | -0.179 |
| ACTAGTGG | -0.129 |
| AGTCTGTC | -0.179 |
| AGAGACGG | -0.12 |
| AGGTGTGA | -0.0863 |
| AAGAGGGA | -0.207 |
| ATAGCAAC | 0.0401 |
| CGACGCAA | 0.233 |
| TCGCCGCA | -0.201 |
| TAATACCA | 0.162 |
| AGCGTCGG | -0.111 |
| ACAGAGAG | -0.274 |
| AACTTCTA | -0.0142 |
| CCAGTTTA | -0.0951 |
| ACGAGACC | -0.0717 |

| Sequence | PBM E-score |
| --- | --- |
| CGCAGGCG | -0.0698 |
| CCATGTTA | 0.0281 |
| AGCGATAG | -0.236 |
| CCTCGTAA | 0.203 |
| TAGGCGAA | -0.0413 |
| AGGACCTA | -0.141 |
| AACAACGA | 0.0961 |
| CAGGGCGG | -0.377 |
| AATGACAA | 0.207 |
| GCGGTCAC | -0.0795 |
| AGGTCACA | -0.122 |
| AACCGCTA | -0.00527 |
| CGTCAAAC | 0.253 |
| ATCAATAA | 0.198 |
| AAGTCGAA | -0.174 |
| CGCTGCGC | -0.217 |
| TCAGTCCA | -0.15 |
| CTTTGAAA | 0.0544 |
| GCTGTCCA | -0.184 |
| AAGCTAGT | 0.0559 |
| AACCAATT | 0.0262 |
| CCAGTTCC | -0.259 |
| TATAGCCA | 0.0755 |
| CGGCGGCA | -0.304 |
| CGGCAGTC | -0.246 |

| Sequence | PBM E-score |
| --- | --- |
| ATCTCGCC | -0.104 |
| TCCGGCCA | -0.377 |
| ATACGTTG | 0.391 |
| CGCATCAC | 0.201 |
| CATGTCGA | -0.147 |
| TAATTTGA | 0.0733 |
| AAAGATCT | -0.0411 |
| TACTTATA | -0.0231 |
| AAACCTTT | -0.171 |
| AGCCAACG | 0.0817 |
| CAGAACAA | 0.178 |
| CCTCGAGC | -0.138 |
| AGCGAACT | -0.0233 |
| GACATATC | 0.263 |
| CCCAGGAG | -0.267 |
| CCAGGGCA | -0.325 |
| AGTACTTA | 0.00814 |
| ATAAGGTC | 0.00557 |
| ACGGGATA | 0.0487 |
| GCAACTTA | 0.192 |
| CCCTCGAA | -0.23 |
| CATAGCCG | -0.0709 |
| GTGCTAAA | 0.0598 |
| ACCACTAC | -0.00026 |
| TCGGAAAA | 0.128 |

| Sequence | PBM E-score |
| --- | --- |
| AATGACCA | 0.0136 |
| AGTTCGAC | 0.0319 |
| CGTGCACA | 0.0919 |
| ATGCATTC | 0.034 |
| GCTCCGCA | -0.139 |
| ATAGGGCA | -0.34 |
| CCATACCG | -0.102 |
| AACAGCAT | 0.0101 |
| GACCGTCA | 0.14 |
| GCATGACC | -0.00129 |
| AGTACCTA | 0.0825 |
| TATGAATA | 0.175 |
| AGTTAACA | 0.048 |
| GTAAACAC | 0.233 |
| CACTTTCA | -0.0374 |
| GCCGGGAC | -0.368 |
| GACGCCGA | 0.0474 |
| CCACCAGC | -0.0759 |
| AGGAGCGG | -0.3 |
| AAGGCCAC | -0.154 |
| GGAGGTAC | -0.173 |
| ATGCCACA | 0.022 |
| CCCCATTC | -0.205 |
| CGAGTTCC | 0.0628 |
| TAATCATA | 0.243 |

| Sequence | PBM E-score |
| --- | --- |
| GAAACTGC | -0.212 |
| CGAATTAC | 0.266 |
| GCCCGCTA | -0.233 |
| TGATGACA | 0.326 |
| TCCCGCGA | -0.104 |
| CGCCGTAG | -0.104 |
| GGCGAACC | -0.25 |
| CAAAACTC | -0.0997 |
| ACTTATGC | 0.0593 |
| GAGATATC | -0.0129 |
| CGATACAA | 0.0458 |
| AGAGAGCA | -0.283 |
| ACCAATAC | 0.0372 |
| TTAACAAA | 0.14 |
| GCGTCGCA | 0.0455 |
| CACAAATA | 0.0596 |
| CGGGTCCA | -0.314 |
| CCGCGCGG | 0.0323 |
| AGGGTGCG | 0.00472 |
| ACAATACA | 0.0868 |
| CAGGCGCC | -0.169 |
| GCCATAAC | -0.0178 |
| AAGCGCAC | -0.136 |
| CTTGATAC | 0.256 |
| GGACACCA | -0.22 |

| Sequence | PBM E-score |
| --- | --- |
| GAGCACTC | -0.0169 |
| ATGTTAAG | 0.0699 |
| GGTCTGGA | -0.25 |
| ACGAGCTA | 0.186 |
| GAAATCCC | -0.0633 |
| CCTAAAAC | 0.0414 |
| ATCGCCAC | 0.0139 |
| AGGATTAC | 0.21 |
| CTTCCACA | 0.03 |
| TACTCATA | 0.0882 |
| AACGAAAC | 0.23 |
| GGCGTCAC | 0.274 |
| GGGCCCTA | -0.315 |
| AAACTTTG | 0.141 |
| AACATCTC | 0.0477 |
| GTAACCTA | 0.192 |
| GCTCCAAC | -0.0244 |
| ACGATCAG | 0.0957 |
| TGAAAGCA | 0.0734 |
| CTGAGCCA | -0.178 |
| CCCAGAAG | -0.209 |
| CAACCAGA | -0.0288 |
| AGCCTTGG | -0.118 |
| AGAATACT | 0.141 |
| AACTAGTA | 0.0323 |

| Sequence | PBM E-score |
| --- | --- |
| AAGTGTCC | -0.139 |
| AACGAGTT | -0.0345 |
| CAACTAAA | 0.078 |
| GCACTCTA | -0.117 |
| ATGTATGA | 0.288 |
| CCCATTGA | -0.0272 |
| GCCATCAC | 0.09 |
| CGAGGCTA | -0.058 |
| CAAGTAAC | 0.137 |
| AGTCAAAC | 0.0666 |
| GCAAACAA | 0.115 |
| CAACGTTG | 0.307 |
| GGCGTCCA | -0.122 |
| CTCGTTAA | 0.0188 |
| AATTCGGA | -0.0118 |
| ACGTTTAA | 0.406 |
| ATCTTTGC | 0.0693 |
| ACATAGGG | -0.181 |
| GCTTTACA | 0.00439 |
| GATAAACA | 0.0798 |
| CGGATCAG | -0.216 |
| ACGGGTAT | 0.0333 |
